No constants are given. Whether binding was seen depends on the method and setting. Some results given as binding are weak or reduced against the parent protein; the word gives no strength.

Sequences of proteins named here, by UniProt entry; tags and fusion partners are left off.
UniProt O49839: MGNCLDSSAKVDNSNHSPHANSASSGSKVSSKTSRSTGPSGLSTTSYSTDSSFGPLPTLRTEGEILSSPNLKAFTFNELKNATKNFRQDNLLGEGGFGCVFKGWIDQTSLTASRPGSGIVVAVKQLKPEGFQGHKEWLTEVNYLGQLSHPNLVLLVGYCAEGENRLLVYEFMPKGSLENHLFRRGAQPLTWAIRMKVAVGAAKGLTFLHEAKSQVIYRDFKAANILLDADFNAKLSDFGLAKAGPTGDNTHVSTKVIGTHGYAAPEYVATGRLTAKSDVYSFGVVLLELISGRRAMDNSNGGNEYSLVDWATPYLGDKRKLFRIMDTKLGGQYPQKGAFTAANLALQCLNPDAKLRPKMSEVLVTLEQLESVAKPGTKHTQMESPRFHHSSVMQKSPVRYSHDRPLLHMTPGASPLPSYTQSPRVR
UniProt Q9SY91: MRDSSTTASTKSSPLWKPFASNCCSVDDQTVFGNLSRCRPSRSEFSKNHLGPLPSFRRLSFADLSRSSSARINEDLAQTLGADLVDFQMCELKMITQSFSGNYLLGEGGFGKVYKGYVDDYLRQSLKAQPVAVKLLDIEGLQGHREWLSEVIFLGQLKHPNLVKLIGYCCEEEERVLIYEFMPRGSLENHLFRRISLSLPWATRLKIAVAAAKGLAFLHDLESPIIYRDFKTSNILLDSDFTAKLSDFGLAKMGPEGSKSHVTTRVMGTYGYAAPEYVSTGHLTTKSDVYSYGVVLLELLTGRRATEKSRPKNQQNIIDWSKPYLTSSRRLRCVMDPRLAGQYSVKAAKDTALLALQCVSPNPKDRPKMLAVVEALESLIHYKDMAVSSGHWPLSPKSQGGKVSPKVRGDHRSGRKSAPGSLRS

The target in the test is T1, wild-type XopAC (GAL4 bait, pGBKT7-xopAC) (Xanthomonas campestris pv. campestris strain 8004) (UniProt Q4UWF4).
T1 sequence: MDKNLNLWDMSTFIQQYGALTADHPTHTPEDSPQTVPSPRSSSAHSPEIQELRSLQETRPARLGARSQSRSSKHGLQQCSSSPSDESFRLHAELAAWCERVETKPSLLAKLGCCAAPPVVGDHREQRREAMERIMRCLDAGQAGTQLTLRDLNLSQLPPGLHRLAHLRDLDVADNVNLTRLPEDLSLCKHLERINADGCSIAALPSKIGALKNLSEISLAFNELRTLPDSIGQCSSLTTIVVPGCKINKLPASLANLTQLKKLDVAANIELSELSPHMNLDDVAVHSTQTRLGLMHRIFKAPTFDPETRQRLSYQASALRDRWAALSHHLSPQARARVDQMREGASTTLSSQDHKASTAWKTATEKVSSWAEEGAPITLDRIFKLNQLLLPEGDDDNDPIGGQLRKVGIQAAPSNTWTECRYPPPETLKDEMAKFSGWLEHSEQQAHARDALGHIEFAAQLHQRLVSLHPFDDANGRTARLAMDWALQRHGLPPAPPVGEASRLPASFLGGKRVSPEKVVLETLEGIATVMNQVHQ
The test is described as follows: two-hybrid; GAL4 system (Clontech), pairwise: XopAC variants as bait (pGBKT7-GW), RLCK as prey (pGADT7), S. cerevisiae AH109; ten-fold serial dilutions spotted on -WL, -WLH and -WLHA, pictures after 4 days; at least 3 clones.

On to “central kinase domain of RIPK (residues 87-367) (GAL4 prey, pGADT7) (from UniProt Q9ZUF4 87-367) (domain or fragment)”, for which the binding entry is on record as “no binding”.

As for “full-length PBL2 (GAL4 prey, pGADT7) (from UniProt O49839 1-426)”, the binding result is on record as “no binding”.

As to “full-length PIX1 (GAL4 prey, pGADT7) (from UniProt Q9SY91 1-424)”, the binding entry is “binds”.

B1: full-length PIX7 (GAL4 prey, pGADT7) (protein, UniProt Q9LFP7 1-493)
chain: MGLDAVKAKGNWKSEKPKETENKNHKKKNGDDNKSRNEEEEEGEASGCWVKFRFMIGCIPSKSDLDASSSSIYGSNCTVTTMESKSANEKSNDQPVGQVSSTTTTSNAESSSSTPVISEELNISSHLRKFTFNDLKLSTRNFRPESLLGEGGFGCVFKGWIEENGTAPVKPGTGLTVAVKTLNPDGLQGHKEWLAEINFLGNLLHPNLVKLVGYCIEDDQRLLVYEFMPRGSLENHLFRRSLPLPWSIRMKIALGAAKGLSFLHEEALKPVIYRDFKTSNILLDADYNAKLSDFGLAKDAPDEGKTHVSTRVMGTYGYAAPEYVMTGHLTSKSDVYSFGVVLLEMLTGRRSMDKNRPNGEHNLVEWARPHLLDKRRFYRLLDPRLEGHFSIKGAQKVTQLAAQCLSRDPKIRPKMSDVVEALKPLPHLKDMASSSYYFQTMQAERLKNGSGRSQGFGSRNGQHQPVFRTLSSPHGSSPYRHQIPSPKPKGATT
With B1, the binding result is given as “binds”.

B2: full-length PIX8-RIPK (GAL4 prey, pGADT7) (protein, UniProt Q9ZUF4 1-462)
chain: MAVKKKVSWRSLIVGCLGDPETLMASSKKPKRKNDVIKKQSSFQRLSILDMSNPSSNTLSEDLSISLAGSDLHVFTLAELKVITQSFSSTNFLGEGGFGPVHKGFIDDKLRPGLKAQPVAVKLLDLEGLQGHREWLTEVMFLGQLKHKNLVKLIGYCCEEEHRTLVYEFMPRGSLENQLFRRYSASLPWSTRMKIAHGAATGLQFLHEAENPVIYRDFKASNILLDSDYTAKLSDFGLAKDGPEGDDTHVSTRVMGTQGYAAPEYIMTGHLTARSDVYSFGVVLLELLTGRRSVDKKRSSREQNLVDWARPMLNDPRKLSRIMDPRLEGQYSETGARKAATLAYQCLSHRPKNRPCMSAVVSILNDLKDYNDIPMGTFTYTVPNTPDNKEDDGRVGNKPRKSSHHHHHQQQQSNHPRSSPSPTTKSPSPTAKSPRNSTENHRRTLRNGVNSPLRSEAGGERY
As for B2, the binding result was “no binding”.

(Values after article PMC3739749.)
